# Some of the results follow.
# System: PfAP2-HC AP2 domain (GST-tagged)
# Assay: gcPBM binding intensity (ln(normalized median fluorescence intensity)); higher = stronger DNA binding
# In short: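 Plasmodium falciparum DNA-binding domains carrying a GST tag were expressed in E. coli and applied for 1 h, at about 25 μg on average, to an Agilent 4 × 180k array. The array held primer-extended double-stranded 36-bp intergenic genomic probes together with negative controls, and binding took place in 1× PBS with 1% milk, 0.2 mg/ml BSA, 0.5% salmon testes DNA and 0.03% Triton X-100. An Alexa488 anti-GST antibody detected bound protein, and the array was scanned at 488 nm. Binding intensity is taken as the highest Masliner-normalised natural-log median intensity across replicate spots of either probe orientation.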
row,Sequence,gcPBM binding intensity (ln)
1,ATATGTAAAATATGGTGTACAATCAAATAAAAAAAA [XGTACX_site6270],9.95
2,ATTAATATATTTACCACACACCCATTTCGATTTTAT [CACACA_site3605],10.3
3,AATATATATATATATCCACACACATACATATATTAA [CACACA_site7907],10.2
4,AAAATATTATTACAGAAACAAAAAGAAAAATATATA [GTGCAC_negctrl_site285],9.7
5,ATGGTTTTTATTTTATGTACTTACTAAAATGAATAA [XGTACX_site4317],9.49
6,TACATAAAAATATATGCATGTTCTTATTTAATAAAA [TGCATGCA_site743],9.3
7,GATATATTACTTAAAATACACACCATGGAAAAGTTT [CACACA_site2606],9.7
8,GAATATGTTAACATTTGTACATAAAATTTTTTACAA [XGTACX_site2444],9.49
9,ATGTTTAAATTTTTCAGTACATATATTCTAGTAAAA [XGTACX_site1010],9.36
10,ACTATATTTCATAACAGTACATATTCCTGAAACATC [XGTACX_site4924],9.65
11,ACAATATAAAAAAATTGTACATAATATATAATATTA [XGTACX_site1040],9.68
12,CATGCTTATATGTGCACACACAAAAGAAAAGAAAAA [CACACA_site1655],10.1
13,TGTTACATAAAATGCACACTTTCAAATATGCTAATA [CACACA_site2925],9.57
14,GAGATAAAATAAAACACACACATATATATATAGAAT [CACACA_site2197],10.5
15,AAAAAAATCTCCAGTGTGCACAATCACATAATATAT [GTGCAC_site9833],10.5
16,TATAAGCTAAGTTGTTGTACAAAAAGGAAAAGTATA [XGTACX_site3741],9.93
17,AATATATGGTTTCATGATATTAAATTCAATTTAATG [GTGCAC_negctrl_site370],9.31
18,TTTTCTTTTAAGTTTGTTTTACACTTTTTATTTTGA [CACACA_negctrl_site1581],9.76
19,TATACGTATTTTATATGTACACATATACATATTTAT [XGTACX_site5301],10
20,AAATATAAATATACTCGTACATATATATATATATAT [XGTACX_site6940],9.72
21,ATATATATATATAGTAGTACTCTCTCTGTATATATA [XGTACX_site3754],9.97
22,ATTTAGAAAAATAAAACACACATATATCTGTAAATA [CACACA_site6119],9.82
23,TTCCTTTGTTGTCGTTGTACTTATATGGTTATAATT [XGTACX_site3082],9.81
24,TATACATAAAAAAATTTTACCAGGTTAATACAAATA [CACACA_negctrl_site1171],9.58
